Measured values taken from PubChem BioAssay (NCI).
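Compound exposure: 48 hours, 5 concentrations, 96-well plates. GI50 is the concentration that inhibits growth by half.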 Certain results were filed several times, with different values. They are shown here; other results are not. An entry can have further records. Records of one sample usually come from different ranges of test concentrations, which the source does not state; some values may only mark the edge of a range.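 The concentration for full growth arrest is given as TGI.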

Key:
Assay in all cases: NCI-60 cell line screen, 48 h
HL-60(TB) leukemia = tested on: HL-60(TB) leukemia
DU-145 prostate = tested on: DU-145 prostate
K-562 leukemia = tested on: K-562 leukemia
EKVX NSCLC = tested on: EKVX NSCLC
SF-268 CNS = tested on: SF-268 CNS
M14 melanoma = tested on: M14 melanoma
MDA-MB-231 breast = tested on: MDA-MB-231 breast
UO-31 renal = tested on: UO-31 renal
SF-295 CNS = tested on: SF-295 CNS
SK-MEL-5 melanoma = tested on: SK-MEL-5 melanoma
KM20L2 colon = tested on: KM20L2 colon
TK-10 renal = tested on: TK-10 renal
MDA-N = tested on: MDA-N
KM12 colon = tested on: KM12 colon
HOP-62 NSCLC = tested on: HOP-62 NSCLC
HOP-92 NSCLC = tested on: HOP-92 NSCLC
SR leukemia = tested on: SR leukemia
COLO 205 colon = tested on: COLO 205 colon
SK-OV-3 ovarian = tested on: SK-OV-3 ovarian
786-0 renal = tested on: 786-0 renal
OVCAR-8 ovarian = tested on: OVCAR-8 ovarian
U251 CNS = tested on: U251 CNS
HS 578T breast = tested on: HS 578T breast
HCT-15 colon = tested on: HCT-15 colon
MDA-MB-435 = tested on: MDA-MB-435
A498 renal = tested on: A498 renal
OVCAR-4 ovarian = tested on: OVCAR-4 ovarian
OVCAR-5 ovarian = tested on: OVCAR-5 ovarian

**Q.** `CC(=O)O[C@H]1C(=O)[C@@]2(C)[C@H]([C@H](OC(=O)c3ccccc3)[C@]3(O)C[C@H](OC(=O)[C@H](O)[C@@H](NC(=O)c4ccccc4)c4ccccc4)C(C)=C1C3(C)C)[C@]1(OC(C)=O)CO[C@@H]1C[C@@H]2O` was tested. Which TGI (HL-60(TB) leukemia) did it give?
**A.** 43.3 nM, 88.1 nM, 41.5 nM, 29.7 µM, 357 nM

**Q.** What about the TGI (DU-145 prostate) of the same compound?
**A.** 190 nM, 10.2 nM, 481 nM, > 100 µM, 992 nM

**Q.** What about the TGI (K-562 leukemia) of the same compound?
**A.** 10.4 nM [1 test] and 543 nM [mean of 16 tests] and > 100 µM [mean of 2 tests] and 14.2 µM [mean of 26 tests] and 57.6 µM [mean of 7 tests]

**Q.** What about the TGI (EKVX NSCLC) of the same compound?
**A.** 983 nM [mean of 17 tests] and > 100 µM [mean of 2 tests] and 23.8 µM [mean of 24 tests] and > 82.9 µM [mean of 8 tests]

**Q.** What about the TGI (SF-268 CNS) of the same compound?
**A.** 952 nM, 778 nM, 24.2 µM, 59.9 µM

**Q.** And the TGI (M14 melanoma)?
**A.** 371 nM, 121 nM, 25 µM, 15.4 µM, 41.8 µM

**Q.** What about the TGI (MDA-MB-231 breast) of the same compound?
**A.** 697 nM, 775 nM, 8.19 µM, 14.5 µM, 30.4 µM

**Q.** And the TGI (UO-31 renal)?
**A.** 60.1 nM, 2.04 µM, 18.3 µM, 36.8 µM, 38.3 µM

**Q.** What about the TGI (SF-295 CNS) of the same compound?
**A.** 230 nM [1 test] and 353 nM [mean of 15 tests] and 802 nM [mean of 18 tests] and 537 nM [mean of 2 tests] and 4.3 µM [mean of 8 tests]

**Q.** And the TGI (SK-MEL-5 melanoma)?
**A.** 596 nM, 978 nM, 863 nM, 9.38 µM, 21.6 µM

**Q.** What about the GI50 (KM20L2 colon) of the same compound?
**A.** 0.104 nM [1 test] and 3.41 nM [mean of 3 tests]

**Q.** What about the TGI (KM20L2 colon) of the same compound?
**A.** 3.48 nM [1 test] and 116 nM [mean of 3 tests]

**Q.** What about the TGI (TK-10 renal) of the same compound?
**A.** 915 nM [mean of 17 tests] and 142 nM, 958 nM, > 43.1 µM [mean of 2 tests] and 2.66 µM [mean of 20 tests] and 52.1 µM [mean of 8 tests]

**Q.** And the TGI (MDA-N)?
**A.** 10.6 nM, 254 nM, 261 nM

**Q.** And the TGI (KM12 colon)?
**A.** 44.8 nM, 44.1 µM [1 test] and 259 nM [mean of 16 tests] and 320 nM [mean of 2 tests] and 21.3 µM [mean of 24 tests] and 9.61 µM [mean of 8 tests]

**Q.** And the TGI (HOP-62 NSCLC)?
**A.** 47.7 nM [1 test] and 751 nM [mean of 16 tests] and 13.5 µM [mean of 2 tests] and 5.37 µM [mean of 21 tests] and 43.5 µM [mean of 8 tests]

**Q.** And the TGI (HOP-92 NSCLC)?
**A.** 89.5 nM [1 test] and 974 nM [mean of 16 tests] and 8.38 µM [mean of 18 tests] and 59 µM [mean of 5 tests]

**Q.** What about the TGI (SR leukemia) of the same compound?
**A.** > 100 µM [1 test] and 3.28 µM [mean of 14 tests] and 271 nM [mean of 15 tests] and 167 nM [mean of 2 tests] and 15.1 µM [mean of 7 tests]

**Q.** What about the TGI (COLO 205 colon) of the same compound?
**A.** 179 nM, 60.3 nM, 1.48 µM, 1.11 µM, 5.15 µM

**Q.** What about the TGI (SK-OV-3 ovarian) of the same compound?
**A.** 631 nM, 1.8 µM, 15.8 µM, > 100 µM, 35.9 µM

**Q.** What about the TGI (786-0 renal) of the same compound?
**A.** 873 nM, 802 nM, 1.89 µM, 22.3 µM, > 100 µM, 48.8 µM

**Q.** What about the TGI (OVCAR-8 ovarian) of the same compound?
**A.** > 100 µM [1 test] and 542 nM [mean of 18 tests] and 182 nM, 4.45 µM [mean of 2 tests] and 21.7 µM [mean of 23 tests] and 42.7 µM [mean of 6 tests]

**Q.** What about the TGI (U251 CNS) of the same compound?
**A.** 624 nM, 2.69 µM, 8.79 µM, 48.2 µM, 30.6 µM

**Q.** What about the TGI (HS 578T breast) of the same compound?
**A.** 6.84 nM [1 test] and 79.6 nM [mean of 17 tests] and 83.5 nM [mean of 20 tests] and 422 nM [mean of 7 tests]

**Q.** What about the TGI (HCT-15 colon) of the same compound?
**A.** 1.17 µM, > 62.1 µM [mean of 2 tests] and 17 µM [mean of 27 tests] and 57.6 µM [mean of 8 tests]

**Q.** And the TGI (MDA-MB-435)?
**A.** 37.1 nM, > 100 µM [1 test] and 16.8 nM [mean of 16 tests] and 53.8 nM [mean of 3 tests]

**Q.** And the TGI (A498 renal)?
**A.** 724 nM, 611 nM, 16.4 µM, 60 µM, 23.1 µM

**Q.** What about the TGI (OVCAR-4 ovarian) of the same compound?
**A.** 4.5 µM, 65.9 µM [mean of 2 tests] and 19 µM [mean of 23 tests] and > 100 µM [mean of 8 tests]

**Q.** What about the TGI (OVCAR-5 ovarian) of the same compound?
**A.** 740 nM [mean of 16 tests] and 1.51 µM, 5.44 µM [mean of 2 tests] and 4.9 µM [mean of 27 tests] and 40.5 µM [mean of 8 tests]
